{
  "sequences": {"note": "The chains behind the UniProt entries cited, without tags or fusion partners.", "UniProt P11940": "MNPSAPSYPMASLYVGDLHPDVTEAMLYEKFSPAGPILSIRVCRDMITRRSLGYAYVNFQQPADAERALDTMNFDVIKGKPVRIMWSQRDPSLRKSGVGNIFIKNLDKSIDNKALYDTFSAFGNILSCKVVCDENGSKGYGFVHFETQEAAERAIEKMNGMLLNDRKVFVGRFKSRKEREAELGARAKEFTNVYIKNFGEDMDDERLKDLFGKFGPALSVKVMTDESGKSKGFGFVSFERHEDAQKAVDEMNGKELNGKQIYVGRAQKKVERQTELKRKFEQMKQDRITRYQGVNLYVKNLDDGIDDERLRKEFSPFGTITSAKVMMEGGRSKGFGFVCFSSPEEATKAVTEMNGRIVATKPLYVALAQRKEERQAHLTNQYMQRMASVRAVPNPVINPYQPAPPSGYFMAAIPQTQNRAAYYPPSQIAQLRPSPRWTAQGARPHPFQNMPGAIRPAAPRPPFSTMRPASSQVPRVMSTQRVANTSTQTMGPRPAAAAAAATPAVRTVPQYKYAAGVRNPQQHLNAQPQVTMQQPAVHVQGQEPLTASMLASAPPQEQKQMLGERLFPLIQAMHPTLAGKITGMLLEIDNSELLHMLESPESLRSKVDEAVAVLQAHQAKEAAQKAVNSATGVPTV"},
  "source": "paper PMC6208778",
  "about": "“eIF2A, an initiator tRNA carrier refractory to eIF2α kinases, functions synergistically with eIF5B” (Cellular and Molecular Life Sciences: CMLS, 2018)",
  "binders": {"B1": {"name": "endogenous eIF5B (protein, UniProt O60841 1-1220)", "chain": "MGKKQKNKSEDSTKDDIDLDALAAEIEGAGAAKEQEPQKSKGKKKKEKKKQDFDEDDILKELEELSLEAQGIKADRETVAVKPTENNEEEFTSKDKKKKGQKGKKQSFDDNDSEELEDKDSKSKKTAKPKVEMYSGSDDDDDFNKLPKKAKGKAQKSNKKWDGSEEDEDNSKKIKERSRINSSGESGDESDEFLQSRKGQKKNQKNKPGPNIESGNEDDDASFKIKTVAQKKAEKKERERKKRDEEKAKLRKLKEKEELETGKKDQSKQKESQRKFEEETVKSKVTVDTGVIPASEEKAETPTAAEDDNEGDKKKKDKKKKKGEKEEKEKEKKKGPSKATVKAMQEALAKLKEEEERQKREEEERIKRLEELEAKRKEEERLEQEKRERKKQKEKERKERLKKEGKLLTKSQREARARAEATLKLLQAQGVEVPSKDSLPKKRPIYEDKKRKKIPQQLESKEVSESMELCAAVEVMEQGVPEKEETPPPVEPEEEEDTEDAGLDDWEAMASDEETEKVEGNKVHIEVKENPEEEEEEEEEEEEDEESEEEEEEEGESEGSEGDEEDEKVSDEKDSGKTLDKKPSKEMSSDSEYDSDDDRTKEERAYDKAKRRIEKRRLEHSKNVNTEKLRAPIICVLGHVDTGKTKILDKLRHTHVQDGEAGGITQQIGATNVPLEAINEQTKMIKNFDRENVRIPGMLIIDTPGHESFSNLRNRGSSLCDIAILVVDIMHGLEPQTIESINLLKSKKCPFIVALNKIDRLYDWKKSPDSDVAATLKKQKKNTKDEFEERAKAIIVEFAQQGLNAALFYENKDPRTFVSLVPTSAHTGDGMGSLIYLLVELTQTMLSKRLAHCEELRAQVMEVKALPGMGTTIDVILINGRLKEGDTIIVPGVEGPIVTQIRGLLLPPPMKELRVKNQYEKHKEVEAAQGVKILGKDLEKTLAGLPLLVAYKEDEIPVLKDELIHELKQTLNAIKLEEKGVYVQASTLGSLEALLEFLKTSEVPYAGINIGPVHKKDVMKASVMLEHDPQYAVILAFDVRIERDAQEMADSLGVRIFSAEIIYHLFDAFTKYRQDYKKQKQEEFKHIAVFPCKIKILPQYIFNSRDPIVMGVTVEAGQVKQGTPMCVPSKNFVDIGIVTSIEINHKQVDVAKKGQEVCVKIEPIPGESPKMFGRHFEATDILVSKISRQSIDALKDWFRDEMQKSDWQLIVELKKVFEII"}, "B2": {"name": "His-tagged eIF2A (natural protein, human, UniProt Q9BY44 1-585, looked up)", "chain": "MAPSTPLLTVRGSEGLYMVNGPPHFTESTVFPRESGKNCKVCIFSKDGTLFAWGNGEKVNIISVTNKGLLHSFDLLKAVCLEFSPKNTVLATWQPYTTSKDGTAGIPNLQLYDVKTGTCLKSFIQKKMQNWCPSWSEDETLCARNVNNEVHFFENNNFNTIANKLHLQKINDFVLSPGPQPYKVAVYVPGSKGAPSFVRLYQYPNFAGPHAALANKSFFKADKVTMLWNKKATAVLVIASTDVDKTGASYYGEQTLHYIATNGESAVVQLPKNGPIYDVVWNSSSTEFCAVYGFMPAKATIFNLKCDPVFDFGTGPRNAAYYSPHGHILVLAGFGNLRGQMEVWDVKNYKLISKPVASDSTYFAWCPDGEHILTATCAPRLRVNNGYKIWHYTGSILHKYDVPSNAELWQVSWQPFLDGIFPAKTITYQAVPSEVPNEEPKVATAYRPPALRNKPITNSKLHEEEPPQNMKPQSGNDKPLSKTALKNQRKHEAKKAAKQEARSDKSPDLAPTPAPQSTPRNTVSQSISGDPEIDKKIKNLKKKLKAIEQLKEQAATGKQLEKNQLEKIQKETALLQELEDLELGI", "notes": "eukaryotic initiation factor 2A (eIF2A); also called His–eIF2A; eukaryotic initiation factor 2A; source: E. coli M15 (plasmid pQE31/His–eIF2A), purified"}},
  "key": {"[1]": {"target": "T1, Flag-eIF2A (Δ462–501) (human) (UniProt Q9BY44)", "T1 sequence": "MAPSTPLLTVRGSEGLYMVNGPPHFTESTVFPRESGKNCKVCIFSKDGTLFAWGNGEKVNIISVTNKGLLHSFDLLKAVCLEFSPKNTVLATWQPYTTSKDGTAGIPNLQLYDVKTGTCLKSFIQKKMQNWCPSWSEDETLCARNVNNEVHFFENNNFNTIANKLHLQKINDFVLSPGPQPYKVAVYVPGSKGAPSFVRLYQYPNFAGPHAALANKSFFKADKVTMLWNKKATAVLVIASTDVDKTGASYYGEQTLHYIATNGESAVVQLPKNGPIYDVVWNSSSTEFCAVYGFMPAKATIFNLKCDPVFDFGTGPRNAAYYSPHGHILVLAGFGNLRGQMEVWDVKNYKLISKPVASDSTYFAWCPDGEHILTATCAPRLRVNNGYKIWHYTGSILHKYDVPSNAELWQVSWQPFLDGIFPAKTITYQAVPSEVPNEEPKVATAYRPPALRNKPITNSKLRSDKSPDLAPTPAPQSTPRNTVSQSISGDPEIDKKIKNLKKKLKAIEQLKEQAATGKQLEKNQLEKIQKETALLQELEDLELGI", "assay": "co-IP; lysates of 293FT cells expressing Flag-tagged eIF2A derivatives; anti-Flag M2 affinity gel, 4 °C, 2 h, buffer A (0.1% NP-40, 40 mM HEPES–KOH pH 7.5, 100 mM KCl, 1 mM EDTA); endogenous eIF5B detected by western blotting"}, "[2]": {"target": "T2, Flag-tagged full-length eIF2A (residues 1–585) (human) (UniProt Q9BY44)", "T2 sequence": "B2 chain", "assay": "co-IP; lysates of 293FT cells expressing Flag-tagged eIF2A derivatives; anti-Flag M2 affinity gel, 4 °C, 2 h, buffer A (0.1% NP-40, 40 mM HEPES–KOH pH 7.5, 100 mM KCl, 1 mM EDTA); endogenous eIF5B detected by western blotting"}, "[3]": {"target": "T3, Flag-tagged eIF2A (1–501) (human) (UniProt Q9BY44)", "T3 sequence": "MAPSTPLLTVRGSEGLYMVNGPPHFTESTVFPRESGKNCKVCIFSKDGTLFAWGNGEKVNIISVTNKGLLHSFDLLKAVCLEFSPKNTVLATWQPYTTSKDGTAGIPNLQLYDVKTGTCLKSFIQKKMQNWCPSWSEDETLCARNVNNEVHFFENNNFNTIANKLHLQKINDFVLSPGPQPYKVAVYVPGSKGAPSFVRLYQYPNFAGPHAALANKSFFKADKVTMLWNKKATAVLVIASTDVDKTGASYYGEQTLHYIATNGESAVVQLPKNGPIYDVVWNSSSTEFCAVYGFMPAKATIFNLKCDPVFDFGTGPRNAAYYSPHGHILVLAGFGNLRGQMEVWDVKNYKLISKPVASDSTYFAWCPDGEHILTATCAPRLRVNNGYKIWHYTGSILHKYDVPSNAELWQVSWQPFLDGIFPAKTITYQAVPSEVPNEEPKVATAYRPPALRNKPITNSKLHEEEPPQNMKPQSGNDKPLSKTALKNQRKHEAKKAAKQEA", "assay": "co-IP; lysates of 293FT cells expressing Flag-tagged eIF2A derivatives; anti-Flag M2 affinity gel, 4 °C, 2 h, buffer A (0.1% NP-40, 40 mM HEPES–KOH pH 7.5, 100 mM KCl, 1 mM EDTA); endogenous eIF5B detected by western blotting"}, "[4]": {"target": "T4, Flag-tagged eIF2A (462–585) (human) (UniProt Q9BY44)", "T4 sequence": "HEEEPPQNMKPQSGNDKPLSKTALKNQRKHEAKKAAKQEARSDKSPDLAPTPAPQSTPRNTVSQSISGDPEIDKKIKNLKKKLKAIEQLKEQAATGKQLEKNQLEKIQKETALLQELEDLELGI", "assay": "co-IP; lysates of 293FT cells expressing Flag-tagged eIF2A derivatives; anti-Flag M2 affinity gel, 4 °C, 2 h, buffer A (0.1% NP-40, 40 mM HEPES–KOH pH 7.5, 100 mM KCl, 1 mM EDTA); endogenous eIF5B detected by western blotting"}, "[5]": {"target": "T5, Flag-tagged eIF2A (1–480) (human) (UniProt Q9BY44)", "T5 sequence": "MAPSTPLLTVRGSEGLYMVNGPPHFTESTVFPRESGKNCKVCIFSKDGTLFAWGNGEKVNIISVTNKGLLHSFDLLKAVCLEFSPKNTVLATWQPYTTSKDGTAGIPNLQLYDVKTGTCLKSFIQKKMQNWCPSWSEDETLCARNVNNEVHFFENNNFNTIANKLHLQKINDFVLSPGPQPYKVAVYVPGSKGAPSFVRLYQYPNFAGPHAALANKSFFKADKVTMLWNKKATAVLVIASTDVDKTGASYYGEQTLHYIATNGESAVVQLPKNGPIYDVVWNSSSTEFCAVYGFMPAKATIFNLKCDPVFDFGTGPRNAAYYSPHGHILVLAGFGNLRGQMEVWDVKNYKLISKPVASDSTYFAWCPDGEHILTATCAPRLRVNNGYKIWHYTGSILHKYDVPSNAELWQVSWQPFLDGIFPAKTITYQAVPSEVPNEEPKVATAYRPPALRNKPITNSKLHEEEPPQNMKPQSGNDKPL", "assay": "co-IP; lysates of 293FT cells expressing Flag-tagged eIF2A derivatives; anti-Flag M2 affinity gel, 4 °C, 2 h, buffer A (0.1% NP-40, 40 mM HEPES–KOH pH 7.5, 100 mM KCl, 1 mM EDTA); endogenous eIF5B detected by western blotting"}, "GST–PABP": {"target": "GST–PABP (UniProt P11940)", "assay": "pull-down; GST pull-down with recombinant proteins purified from E. coli extracts; GST fusions as bait, His–eIF2A detected by western blotting with anti-His; both purified"}},
  "note": "No constants are given. Whether binding was seen depends on the method and setting. For part of these data: In cells and extracts the contact can be indirect. Some results given as binding are weak or reduced against the parent protein; the word gives no strength. Sequences can lack the tags named with a protein.",
  "data": [
    {"binder": "B1", "values": [
      {"measurement": "binding", "setting": "[1]", "result": "no binding"},
      {"measurement": "binding", "setting": "[2]", "result": "binds"},
      {"measurement": "binding", "setting": "[3]", "result": "binds"},
      {"measurement": "binding", "setting": "[4]", "result": "binds"},
      {"measurement": "binding", "setting": "[5]", "result": "no binding"}
    ]},
    {"binder": "B2", "values": [
      {"measurement": "binding", "setting": "GST–PABP", "result": "no binding"}
    ]}
  ]
}
